# Data reported in the supplement of paper PMC8728848.
# This is one part of the list.
# How the values were obtained:
# Assay in all cases: glycan array binding signal (z-score within array); higher = stronger binding
# Conditions in all cases: glycan notation: IUPAC condensed, linker removed
# [1] = target: Kdn(a2-3)Gal(b1-3)GlcNAc
# Outline: (§1)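 Glycan array binding is given as a within-array Z-score, which can be read as non-binding when negative. The arrays, 3228 of them, came from the Consortium for Functional Glycomics database and were retained only where the protein sequence was available. Z-scores were averaged across arrays of the same protein sequence at different concentrations or buffers and across linkers.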
# [2] = target: Kdn(a2-3)Gal(b1-4)Glc
# Outline: as §1
# [3] = target: Kdn(a2-3)Gal(b1-4)GlcNAc
# Outline: as §1
# [4] = target: Kdn(a2-3)Gal(b1-4)[Fuc(a1-3)]GlcNAc
# Outline: as §1
# [5] = target: Kdn(a2-6)Gal(b1-4)GlcNAc
# Outline: as §1
# [6] = target: Man(a1-2)Man(a1-2)Man(a1-3)Man
# Outline: as §1
# [7] = target: Man(a1-2)Man(a1-2)Man(a1-6)[Man(a1-3)]Man
# Outline: as §1
# [8] = target: Man(a1-2)Man(a1-3)Man
# Outline: as §1
# [9] = target: Man(a1-2)Man(a1-3)[Man(a1-2)Man(a1-6)]Man
# Outline: as §1
# [10] = target: Man(a1-2)Man(a1-3)[Man(a1-2)Man(a1-6)]Man(a1-6)[Man(a1-2)Man(a1-2)Man(a1-3)]Man
# Outline: as §1
# [11] = target: Man(a1-2)Man(a1-3)[Man(a1-2)Man(a1-6)]Man(a1-6)[Man(a1-2)Man(a1-2)Man(a1-3)]Man(b1-4)GlcNAc(b1-4)GlcNAc
# Outline: as §1
# [12] = target: Man(a1-2)Man(a1-3)[Man(a1-6)]Man(a1-6)[Man(a1-2)Man(a1-3)]Man(b1-4)GlcNAc(b1-4)GlcNAc
# Outline: as §1
# [13] = target: Man(a1-2)Man(a1-6)[Man(a1-3)]Man(a1-6)[Man(a1-2)Man(a1-2)Man(a1-3)]Man
# Outline: as §1
# [14] = target: Man(a1-2)Man(a1-6)[Man(a1-3)]Man(a1-6)[Man(a1-2)Man(a1-2)Man(a1-3)]Man(b1-4)GlcNAc(b1-4)GlcNAc
# Outline: as §1
# [15] = target: Man(a1-3)[Man(a1-6)]Man
# Outline: as §1
# [16] = target: Man(a1-3)[Man(a1-6)]Man(a1-6)[Man(a1-2)Man(a1-3)]Man(b1-4)GlcNAc(b1-4)GlcNAc
# Outline: as §1
# [17] = target: Man(a1-3)[Man(a1-6)]Man(a1-6)[Man(a1-3)]Man
# Outline: as §1
# [18] = target: Man(a1-3)[Man(a1-6)]Man(a1-6)[Man(a1-3)]Man(b1-4)GlcNAc(b1-4)GlcNAc
# Outline: as §1
# [19] = target: Man(a1-3)[Man(a1-6)]Man(b1-4)GlcNAc(b1-4)GlcNAc
# Outline: as §1
# [20] = target: Man(a1-3)[Man(a1-6)]Man(b1-4)GlcNAc(b1-4)[Fuc(a1-6)]GlcNAc
# Outline: as §1
# [21] = target: Man(a1-6)Man
# Outline: as §1
# [22] = target: Man(b1-4)GlcNAc
# Outline: as §1
# [23] = target: MurNAc(b1-4)GlcNAc
# Outline: as §1
# [24] = target: Neu5Ac(a2-3)Gal
# Outline: as §1
# [25] = target: Neu5Ac(a2-3)Gal(b1-3)GalNAc
# Outline: as §1
# [26] = target: Neu5Ac(a2-3)Gal(b1-3)GalNAc(b1-3)Gal(a1-4)Gal(b1-4)Glc
# Outline: as §1
# [27] = target: Neu5Ac(a2-3)Gal(b1-3)GalNAc(b1-4)[Neu5Ac(a2-3)]Gal(b1-4)Glc
# Outline: as §1
# [28] = target: Neu5Ac(a2-3)Gal(b1-3)GalNAc(b1-4)[Neu5Ac(a2-8)Neu5Ac(a2-3)]Gal(b1-4)Glc
# Outline: as §1
# [29] = target: Neu5Ac(a2-3)Gal(b1-3)GalNAc6S
# Outline: as §1
# [30] = target: Neu5Ac(a2-3)Gal(b1-3)GlcNAc
# Outline: as §1
# [31] = target: Neu5Ac(a2-3)Gal(b1-3)GlcNAc(b1-2)Man
# Outline: as §1
# [32] = target: Neu5Ac(a2-3)Gal(b1-3)GlcNAc(b1-2)Man(a1-3)[GlcNAc(b1-4)][Neu5Ac(a2-3)Gal(b1-3)GlcNAc(b1-2)Man(a1-6)]Man(b1-4)GlcNAc(b1-4)GlcNAc
# Outline: as §1
# [33] = target: Neu5Ac(a2-3)Gal(b1-3)GlcNAc(b1-2)Man(a1-3)[Neu5Ac(a2-3)Gal(b1-3)GlcNAc(b1-2)Man(a1-6)]Man(b1-4)GlcNAc(b1-4)GlcNAc
# Outline: as §1
# [34] = target: Neu5Ac(a2-3)Gal(b1-3)GlcNAc(b1-3)Gal(b1-3)GlcNAc
# Outline: as §1
# [35] = target: Neu5Ac(a2-3)Gal(b1-3)GlcNAc(b1-3)Gal(b1-4)GlcNAc
# Outline: as §1
# [36] = target: Neu5Ac(a2-3)Gal(b1-3)GlcNAc(b1-3)GalNAc
# Outline: as §1
# [37] = target: Neu5Ac(a2-3)Gal(b1-3)GlcNAc(b1-4)Gal(b1-4)Glc
# Outline: as §1
# [38] = target: Neu5Ac(a2-3)Gal(b1-3)GlcNAc(b1-6)GalNAc
# Outline: as §1
binder,measurement,setting,value
"AT1G73650(15) (Arabidopsis thaliana), F4HRY1 (protein) MGTVLDSHFLALTAIVTVIYQFIFFVITALFKFDQVTDFAGSTNFVILAVLTLVLKASWHFRQIVLTLLVVVWGLRLGIFLLMETRILQWGEDRRFDEQRGNIVRLIIFWTLQAVWVWTVSLPLTLVNASDGGGSLKPADVIGWTMETWVFGFLIEAAADQQKLSFKNSPENRGKWCDVGVWKYSRHPNYFGEMETLLWWGIFVAASPVLEGAEYLVIFGPLFLTLLLLFVSGIPLLEASADKKHGNSGAYRSYKKTTSPLILFPRGVYGNLPGWFKTVFLFEFPFYSRNLPQEGRLQNSKEKEVKDD",glycan array binding signal (z-score),[1],0.749
same,glycan array binding signal (z-score),[2],1.87
same,glycan array binding signal (z-score),[3],-0.042
same,glycan array binding signal (z-score),[4],0.199
same,glycan array binding signal (z-score),[5],0.313
same,glycan array binding signal (z-score),[6],-0.298
same,glycan array binding signal (z-score),[7],-0.361
same,glycan array binding signal (z-score),[8],-0.334
same,glycan array binding signal (z-score),[9],-0.516
same,glycan array binding signal (z-score),[10],-0.275
same,glycan array binding signal (z-score),[11],-0.226
same,glycan array binding signal (z-score),[12],-0.523
same,glycan array binding signal (z-score),[13],-0.508
same,glycan array binding signal (z-score),[14],-0.132
same,glycan array binding signal (z-score),[15],0.955
same,glycan array binding signal (z-score),[16],-0.571
same,glycan array binding signal (z-score),[17],1.28
same,glycan array binding signal (z-score),[18],-0.566
same,glycan array binding signal (z-score),[19],0.138
same,glycan array binding signal (z-score),[20],-0.199
same,glycan array binding signal (z-score),[21],-0.354
same,glycan array binding signal (z-score),[22],-0.703
same,glycan array binding signal (z-score),[23],-0.639
same,glycan array binding signal (z-score),[24],-0.693
same,glycan array binding signal (z-score),[25],0.046
same,glycan array binding signal (z-score),[26],-0.349
same,glycan array binding signal (z-score),[27],-0.634
same,glycan array binding signal (z-score),[28],-0.468
same,glycan array binding signal (z-score),[29],-0.328
same,glycan array binding signal (z-score),[30],-0.508
same,glycan array binding signal (z-score),[31],1.4
same,glycan array binding signal (z-score),[32],-0.619
same,glycan array binding signal (z-score),[33],-0.37
same,glycan array binding signal (z-score),[34],-0.096
same,glycan array binding signal (z-score),[35],-0.32
same,glycan array binding signal (z-score),[36],-0.661
same,glycan array binding signal (z-score),[37],-0.009
same,glycan array binding signal (z-score),[38],3.42
